Assay results published in ChEMBL document CHEMBL4888484, “Replenishing the malaria drug discovery pipeline: Screening and hit evaluation of the MMV Hit Generation Library 1 (HGL1) against asexual blood stage Plasmodium falciparum ,using a nano luciferase reporter read-out” (2022).
Hit rate of the full screen: of about 150,000 compounds, about 540 (0.36%) showed an effect of 50% or more. Some of the results follow.

Test system: Plasmodium falciparum
Test: Primary screen in NF54 nanoGlo assay, in single point, at 2uM, 72h; a lower Z score goes with more inhibition
Assay type: functional, Erythrocyte
Conditions: timepoint 72 hour

Going from `Cc1cscc1NC(=O)N1CCCS(=O)(=O)C[C@H]1C1CC1` to `CC(C)CC(=O)N(Cc1ccc(Br)o1)[C@H]1CCS(=O)(=O)C1`, the “% Inhibition” value rises from -12% to 1%.

`Cc1cc(-n2cncn2)ccc1C(=O)N1CCC(N2CCCCC2=O)CC1` and `CC(C)C1(CNC(=O)[C@H]2CCCN(C3CCN(Cc4ccncc4)CC3)C2)CC1` are the same in “% Inhibition” value: -11% for the first, -11% for the second.

Going from `COc1nccnc1N[C@H]1CCOC[C@@H]1OCc1ccccn1` to `O=C(NCc1ccc(Nc2ccncc2)cc1)[C@H]1CCCO1`, the “% Inhibition” value rises from -10% to -9%.

Going from `CC(C)C(=O)Nc1ccc2c(c1)cc(C(=O)NCc1ccccc1)n2Cc1ccc(C(F)(F)F)cc1` to `O=C(Nc1ccc(-c2cc3c(o2)CCN(C(=O)c2ccc4ccccc4c2)C3)cc1)c1ccc(Cl)cc1Cl`, the “% Inhibition” value rises from -5% to 4%.

Going from `CC(C)N1CCN(S(=O)(=O)c2cc(-c3nnc(C4CCCC4)o3)co2)CC1` to `CN(CCN(C)C(=O)C1CC2CCC1O2)C(=O)c1cc(C2CCCC2)no1` (stereo not drawn), the “% Inhibition” value falls from -2% to -4%.

Compared with `COCc1nc(Cc2noc([C@@]3(C)CCNC(=O)C3)n2)cs1`, `CCNc1nc(C)cc(OC(F)F)n1` is lower in “% Inhibition” value: 1% for the first, -6% for the second.

Going from `COC(=O)c1ccc(N[C@@H](C)c2ccc(OC)c(F)c2)nn1` to `C[C@@H](CNC(=O)c1cc[nH]n1)Oc1ccc(F)cc1`, the “% Inhibition” value rises from -10% to 7%.

First: c1ccc2c(c1)C[C@H](Cc1ccc(-n3ccnc3)nn1)CO2
Second: Cc1ccc(NC(=O)c2nc(-n3ccnc3)ncc2Cl)cc1Cl
The “% Inhibition” value of the first is higher: 3% for the first, -10% for the second.

Going from `O=C(NCCn1nc(C2CC2)ccc1=O)c1ccncc1F` to `O=C(Cc1c(F)cccc1F)N1CCC(n2c(-c3ccccc3)nc3ccc(F)cc32)CC1`, the “% Inhibition” value falls from 6% to -3%.

First: CC1CCCN(C(=O)C(C)NC(=O)C(C)(C)C)C1 (stereo not drawn)
Second: CCc1ccc2c(c1)CCN2Cc1nc(C(=O)O)co1
The “% Inhibition” value of the first is higher: 2% for the first, 1% for the second.

Going from `C[C@@H](c1ccc(-c2cccc(-n3cnnc3)c2)cc1)N(C)C` to `CN1CCN(c2cc(Br)ccc2C#N)C[C@H]1c1ncc[nH]1`, the “% Inhibition” value falls from 6% to -22%.

Compared with `CN(CC1CCC1)c1nnnn1Cc1cnn(CC(F)(F)F)c1`, `CCN(CC)c1ccc(C(=O)OCC(=O)NC(=O)NC)cn1` is lower in “% Inhibition” value: -9% for the first, -14% for the second.

Going from `Cc1cscc1NC(=O)N1CCCS(=O)(=O)C[C@H]1C1CC1` to `CC(C)CC(=O)N(Cc1ccc(Br)o1)[C@H]1CCS(=O)(=O)C1`, the Z score falls from 1.91 to -0.06.

First: Cc1cc(-n2cncn2)ccc1C(=O)N1CCC(N2CCCCC2=O)CC1
Second: CC(C)C1(CNC(=O)[C@H]2CCCN(C3CCN(Cc4ccncc4)CC3)C2)CC1
The Z score of the first is higher: 2.01 for the first, 1.51 for the second.

Going from `COc1nccnc1N[C@H]1CCOC[C@@H]1OCc1ccccn1` to `O=C(NCc1ccc(Nc2ccncc2)cc1)[C@H]1CCCO1`, the Z score falls from 1.67 to 1.24.

First: CC(C)C(=O)Nc1ccc2c(c1)cc(C(=O)NCc1ccccc1)n2Cc1ccc(C(F)(F)F)cc1
Second: O=C(Nc1ccc(-c2cc3c(o2)CCN(C(=O)c2ccc4ccccc4c2)C3)cc1)c1ccc(Cl)cc1Cl
The Z score of the first is higher: 0.66 for the first, -0.51 for the second.

First: CC(C)N1CCN(S(=O)(=O)c2cc(-c3nnc(C4CCCC4)o3)co2)CC1
Second: CN(CCN(C)C(=O)C1CC2CCC1O2)C(=O)c1cc(C2CCCC2)no1 (stereo not drawn)
The Z score of the first is lower: 0.23 for the first, 0.56 for the second.

First: COCc1nc(Cc2noc([C@@]3(C)CCNC(=O)C3)n2)cs1
Second: CCNc1nc(C)cc(OC(F)F)n1
The Z score of the first is lower: -0.08 for the first, 1.18 for the second.

Compared with `COC(=O)c1ccc(N[C@@H](C)c2ccc(OC)c(F)c2)nn1`, `C[C@@H](CNC(=O)c1cc[nH]n1)Oc1ccc(F)cc1` is lower in Z score: 1.85 for the first, -0.94 for the second.

First: c1ccc2c(c1)C[C@H](Cc1ccc(-n3ccnc3)nn1)CO2
Second: Cc1ccc(NC(=O)c2nc(-n3ccnc3)ncc2Cl)cc1Cl
The Z score of the first is lower: -0.64 for the first, 1.34 for the second.

First: O=C(NCCn1nc(C2CC2)ccc1=O)c1ccncc1F
Second: O=C(Cc1c(F)cccc1F)N1CCC(n2c(-c3ccccc3)nc3ccc(F)cc32)CC1
The Z score of the first is lower: -0.77 for the first, 0.37 for the second.

First: CC1CCCN(C(=O)C(C)NC(=O)C(C)(C)C)C1 (stereo not drawn)
Second: CCc1ccc2c(c1)CCN2Cc1nc(C(=O)O)co1
The Z score of the first is lower: -0.4 for the first, -0.26 for the second.

Compared with `C[C@@H](c1ccc(-c2cccc(-n3cnnc3)c2)cc1)N(C)C`, `CN1CCN(c2cc(Br)ccc2C#N)C[C@H]1c1ncc[nH]1` is higher in Z score: -0.76 for the first, 2.23 for the second.

Going from `CN(CC1CCC1)c1nnnn1Cc1cnn(CC(F)(F)F)c1` to `CCN(CC)c1ccc(C(=O)OCC(=O)NC(=O)NC)cn1`, the Z score falls from 1.71 to 1.52.
